Test results as given in patent US20230113563A1 (SYSTIMMUNE, published 2023).

Target: EGFR on tumor cells (MDA-MB-231, HeLa) (UniProt P00533)
Experiment: cell-based or functional assay

B1: SI-55E3 (other)
heavy: DIVLTQSPASLAVSLGQRATISCKASQSVDFDGDSYMNWYQQKPGQPPKVLIYAASNLESGIPARFSGSGSGTDFTLNIHPVEEEDAATYYCQQSNEDPWTFGGGTKLEIKRTVAAPSVFIFPPSDEQLKSGTASVVCLLNNFYPREAKVQWKVDNALQSGNSQESVTEQDSKDSTYSLSSTLTLSKADYEKHKVYACEVTHQGLSSPVTKSFNRGEC
light: DIVLTQSPASLAVSLGQRATISCKASQSVDFDGDSYMNWYQQKPGQPPKVLIYAASNLESGIPARFSGSGSGTDFTLNIHPVEEEDAATYYCQQSNEDPWTFGGGTKLEIKRTVAAPSVFIFPPSDEQLKSGTASVVCLLNNFYPREAKVQWKVDNALQSGNSQESVTEQDSKDSTYSLSSTLTLSKADYEKHKVYACEVTHQGLSSPVTKSFNRGEC
TDCC EC50 (pM), HeLa target cells, E:T 10: 33 pM
